± gives the standard deviation of the averaged measurements. Laboratory Escherichia coli strains with one amino-acid change in an essential protein, pooled on minimal glucose agar with carbenicillin or gentamicin at twice the control MIC (plus kanamycin and chloramphenicol for the plasmids), 48 h. Fold change of barcode share against drug-free plates; higher = less susceptible. Active = above 20 in both replicates (the paper's putatively resistant). '<' = one read or none on drug, '>' = one read or none on a drug-free plate. Shares are relative, so most strains fall below 1 when a few take over. Listed are strains with at least 15 reads on both drug-free plates, and hits; most hits rest on fewer reference reads. Replicate rank correlation about 0.5. Edits are read from barcodes.
B1: lptF; a variant is named by its letters at X, in order (parent)
chain: MIIIRYLVRETLKSQLAILFILLLIFFCQKLVRILGAAVDGDIPANLVLSLLGLGVPEMAQLILPLSLFLGXLMTLGKLYTESEITVMHACGLSKAVLVKAAMILAVFTAIVAAVNVMWAGPWSSRHQDEVLAEAKANPGMAALAQGQFQQATNGSSVLFIESVDGSDFKDVFLAQIRPKGNARPSVVVADSGHLTQLRDGSQVVTLNQGTRFEGTALLRDFRITDFQDYQAIIGHQAVALDPNDTDQMDMRTLWNTDTDRARAELNWRITLVFTXFXXALXXXPLSVVNPRQGRVLSMLPAMLLYLLFFLIQTSLKSNGGKGKLDPTLWMWTVNLIYLALAIVLNLWDTVPVRRLRASFSRKGAV
B2: trpD; numbered along this chain (parent)
chain: MADILLLDNIDSFTYNLADQLRSNGHNVVIYRNHIPAQTLIERLATMSNPVLMLSPGPGVPSEAGCMPELLTRLRGKLPIIGICLGHQAIVEAYGGYVGQAGEILHGKASSIEHDGQAMFAGLTNPLPVARYHSLVGSNIPAGLTINAHFNGMVMAVRHDADRVCGFQFHPESILTTQGARLLEQTLAWAQQKLEPANTLQPILEKLYQAQTLSQQESHQLFSAVVRGELKPEQLAAALVSMKIRGEHPNEIAGAATALLENAAPFPRPDYLFADIVGTGGDGSNSINISTASAFVAAACGLKVAKHGNRSVSSKSGSSDLLAAFGINLDMNADKSRQALDELGVCFLFAPKYHTGFRHAMPVRQQLKTRTLFNVLGPLINPAHPPLALIGVYSPELVLPIAETLRVLGYQRAAVVHSGGMDEVSLHAPTIVAELHDGEIKSYQLTAEDFGLTPYHQEQLAGGTPEENRDILTRLLQGKGDAAHEAAVAANVAMLMRLHGHEDLQANAQTVLEVLRSGSAYDRVTALAARG
B3: waaA; numbered along this chain (parent)
chain: MLELLYTALLYLIQPLIWIRLWVRGRKAPAYRKRWGERYGFYRHPLKPGGIMLHSVSVGETLAAIPLVRALRHRYPDLPITVTTMTPTGSERVQSAFGKDVQHVYLPYDLPDALNRFLNKVDPKLVLIMETELWPNLIAALHKRKIPLVIANARLSARSAAGYAKLGKFVRRLLRRITLIAAQNEEDGARFVALGAKNNQVTVTGSLKFDISVTPQLAAKAVTLRRQWAPHRPVWIATSTHEGEESVVIAAHQALLQQFPNLLLILVPRHPERFPDAINLVRQAGLSYITRSSGEVPSTSTQVVVGDTMGELMLLYGIADLAFVGGSLVERGGHNPLEAAAHAIPVLMGPHTFNFKDICARLEQASGLITVTDATTLAKEVSSLLTDADYRSFYGRHAVEVLYQNQGALQRLLQLLEPYLPPKTH
B4: carB; numbered along this chain (parent)
chain: MPKRTDIKSILILGAGPIVIGQACEFDYSGAQACKALREEGYRVILVNSNPATIMTDPEMADATYIEPIHWEVVRKIIEKERPDAVLPTMGGQTALNCALELERQGVLEEFGVTMIGATADAIDKAEDRRRFDVAMKKIGLETARSGIAHTMEEALAVAADVGFPCIIRPSFTMGGSGGGIAYNREEFEEICARGLDLSPTKELLIDESLIGWKEYEMEVVRDKNDNCIIVCSIENFDAMGIHTGDSITVAPAQTLTDKEYQIMRNASMAVLREIGVETGGSNVQFAVNPKNGRLIVIEMNPRVSRSSALASKATGFPIAKVAAKLAVGYTLDELMNDITGGRTPASFEPSIDYVVTKIPRFNFEKFAGANDRLTTQMKSVGEVMAIGRTQQESLQKALRGLEVGATGFDPKVSLDDPEALTKIRRELKDAGADRIWYIADAFRAGLSVDGVFNLTNIDRWFLVQIEELVRLEEKVAEVGITGLNADFLRQLKRKGFADARLAKLAGVREAEIRKLRDQYDLHPVYKRVDTCAAEFATDTAYMYSTYEEECEANPSTDREKIMVLGGGPNRIGQGIEFDYCCVHASLALREDGYETIMVNCNPETVSTDYDTSDRLYFEPVTLEDVLEIVRIEKPKGVIVQYGGQTPLKLARALEAAGVPVIGTSPDAIDRAEDRERFQHAVERLKLKQPANATVTAIEMAVEKAKEIGYPLVVRPSYVLGGRAMEIVYDEADLRRYFQTAVSVSNDAPVLLDHFLDDAVEVDVDAICDGEMVLIGGIMEHIEQAGVHSGDSACSLPAYTLSQEIQDVMRQQVQKLAFELQVRGLMNVQFAVKNNEVYLIEVNPRAARTVPFVSKATGVPLAKVAARVMAGKSLAEQGVTKEVIPPYYSVKEVVLPFNKFPGVDPLLGPEMRSTGEVMGVGRTFAEAFAKAQLGSNSTMKKHGRALLSVREGDKERVVDLAAKLLKQGFELDATHGTAIVLGEAGINPRLVNKVHEGRPHIQDRIKNGEYTYIINTTSGRRAIEDSRVIRRSALQYKVHYDTTLNGGFATAMALNADATEKVISVQEMHAQIK

Variants of: B1
Test: barcode share on antibiotic plates over drug-free plates; higher = less susceptible
Settings: with Escherichia coli (laboratory strain); antibiotic: carbenicillin; 2× MIC (3.1 µg/mL)
Procedure: (§1)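 A pool of E. coli strains, each edited to carry one amino-acid change in an essential protein, was grown for 48 h on minimal glucose agar with or without antibiotic; strain barcodes were sequenced; mean of two replicates.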

Variant | fold change of barcode share
QVMMMVV | 0.202 ± 0.0032
WVMMMVV | 0.305 ± 0.23
LVMMDVV | 0.213 ± 0.17
LVAMMVV | 1.3 ± 1.7
LDMMMVV | 0.457 ± 0.18
DVMMMVV | 0.563 ± 0.39
LVMWMVV | 0.279 ± 0.077
LVMMWVV | 0.239 ± 0.14
LVMMPVV | 0.2082 ± 0.0012
LVDMMVV | 0.188 ± 0.0056
AVMMMVV | 0.839 ± 0.6

Same assay, conditions: with Escherichia coli (laboratory strain); antibiotic: gentamicin; 2× MIC (MIC 0.45 µg/mL)

Variant | fold change of barcode share
QVMMMVV | < 0.0088
WVMMMVV | < 0.0171
LVAMMVV | 0.0172 ± 0.0097
LDMMMVV | 0.00753 ± 0.0042
DVMMMVV | < 0.00734
LVMWMVV | < 0.00841
LVMMWVV | < 0.0105
LVMMMWV | 0.0231 ± 0.019
LVMMPVV | < 0.0102
LVDMMVV | 0.00718 ± 0.0025
AVMMMVV | 0.00714 ± 0.0049

Variants of: B2
Test: as above
Settings: with Escherichia coli (laboratory strain); antibiotic: carbenicillin; 2× MIC (3.1 µg/mL)
Procedure: as §1

Variant | fold change of barcode share
L70D | 0.667 ± 0.26
L70A | 0.426 ± 0.17
L70Q | 0.366 ± 0.089
L70W | 0.5 ± 0.026
V416A | 0.441 ± 0.11
I81A | 0.597 ± 0.29
I81Q | 0.605 ± 0.033
I81W | 0.402 ± 0.23
F373A | 0.566 ± 0.11
F373W | 0.702 ± 0.48
M67P | 0.469 ± 0.14
M67A | 0.4026 ± 0.0037
M67Q | 0.418 ± 0.025
M67W | 0.433 ± 0.049
M67D | 0.535 ± 0.12
F347A | 0.356 ± 0.21
F347W | 0.542 ± 0.027
F347Q | 0.997 ± 0.36
F347D | > 21.9 [active]
L495A | 0.953 ± 0.69

Same assay, conditions: with Escherichia coli (laboratory strain); antibiotic: gentamicin; 2× MIC (MIC 0.45 µg/mL)

Variant | fold change of barcode share
L70D | 0.0409 ± 0.027
L70A | 0.00935 ± 0.00074
L70Q | 0.0195 ± 0.0097
L70W | 1.29 ± 1.8
V416A | 0.0804 ± 0.1
I81A | < 0.0117
F373A | 0.0186 ± 0.003
M67P | < 0.00654
M67A | 0.0276 ± 0.033
M67Q | 0.00833 ± 0.0028
M67W | 0.0124 ± 0.011
M67D | 0.0185 ± 0.0097
F347A | 0.0113 ± 0.01
F347W | 0.0388 ± 0.019
L495A | 0.0105 ± 0.0031

Variants of: B3
Test: as above
Settings: with Escherichia coli (laboratory strain); antibiotic: gentamicin; 2× MIC (MIC 0.45 µg/mL)
Procedure: as §1

Variant | fold change of barcode share
F169P | < 0.0133
F169Q | < 0.012
F169W | < 0.00596
F169A | < 0.00577
F169D | < 0.0129
V170P | 0.013 ± 0.0045
V170W | < 0.00441
V170Q | 0.004998 ± 7.9e-06
V170A | < 0.0109
V170D | < 0.00291
I369Q | 0.0041 ± 0.003
I369A | 0.00802 ± 0.0016
I369D | 0.00606 ± 0.0044
I369W | 0.00351 ± 0.0017
V248A | 0.00368 ± 0.002
V248P | 0.00355 ± 0.00041
V248D | 0.00259 ± 0.0013
V248Q | 0.0518 ± 0.026
L53A | < 0.00846
L53W | < 0.00697
L53Q | < 0.00954
I138D | 0.471 ± 0.65
I138A | < 0.0056
I138Q | < 0.0115
V267A | < 0.0104
V267W | 0.0203 ± 0.00049
V267P | < 0.00868

Same assay, conditions: with Escherichia coli (laboratory strain); antibiotic: carbenicillin; 2× MIC (3.1 µg/mL)

Variant | fold change of barcode share
F169Q | 0.324 ± 0.065
F169W | 0.281 ± 0.021
F169A | 0.267 ± 0.0077
F169D | 0.397 ± 0.17
V170P | 0.291 ± 0.2
V170W | 0.483 ± 0.2
V170Q | 0.195 ± 0.018
V170A | 0.544 ± 0.42
V170D | 0.743 ± 0.24
I369Q | 0.301 ± 0.059
I369A | 0.272 ± 0.021
I369D | 0.587 ± 0.07
I369W | 0.527 ± 0.45
V248A | 0.28 ± 0.045
V248P | 0.227 ± 0.016
V248Q | 1.96 ± 2.4
L53A | 0.499 ± 0.42
L53W | 0.458 ± 0.22
L53Q | 0.341 ± 0.13
I138D | 0.265 ± 0.09
I138A | 0.354 ± 0.064
I138Q | 0.373 ± 0.24
V267P | 0.166 ± 0.033

Variants of: B4
Test: as above
Settings: with Escherichia coli (laboratory strain); antibiotic: carbenicillin; 2× MIC (3.1 µg/mL)
Procedure: as §1

Variant | fold change of barcode share
M598D | 0.92 ± 0.77
M598W | 0.691 ± 0.007

Same assay, conditions: with Escherichia coli (laboratory strain); antibiotic: gentamicin; 2× MIC (MIC 0.45 µg/mL)

Variant | fold change of barcode share
M598D | 0.0154 ± 0.014
M598W | 0.0359 ± 0.039

— the supplement of paper PMC11876631
